The campaign covered roughly 340,000 compounds. About 12,000 (3.5%) were called active. This list was built around the results that the source calls inconclusive (neither active nor inactive); the mix of calls is not that of the screen. The call rests on the fitted dose curve; in most records, active means well fitted inhibition curve with a large enough effect; inconclusive means small, poorly fitted or top-dose-only effect, or another doubt; inactive means no such curve, though single readings can be large or run the other way. No potency is given beside an inconclusive call; the fits are too rough.
experiment: qHTS Assay for Inhibitors of Hepatitis C Virus (HCV); conditions: Huh7.5.1 HCVcc-Cre (HCVcc is cell-culture hepatitis C virus) infection, luciferase reporter, 44 h; activity change, negative = inhibition: at 41.8 µM (top of the series) unless noted
Procedure, shortened: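 Compounds are dispensed onto cells plated 4 h earlier at 1,000 per well, with HCVcc-Cre virus (about 0.5 moi) added next. Following 44 h of culture, luminescent signal is measured for 15 sec after 15 min with substrate at room temperature.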
On the % scale 0 is the no-effect control and ±100 the full control effect; potency means the concentration at half of the fitted maximal effect; tags describe the fitted curve by direction and shape.

Compound	Potency	activity change, negative = inhibition
COc1ccc(C2CC(c3cccs3)=NN2C(=O)c2ccccc2)cc1OC (stereo not given)	inactive	–
O=C(CCSCc1ccccc1Cl)N1CCN(c2cccc(Cl)c2)CC1	inconclusive [inhibitor, partial curve]	–
Cc1onc(-c2c(F)cccc2Cl)c1C(=O)Nc1sc2c(c1C#N)CCC(C(C)(C)C)C2 (stereo not given)	inactive	–
CC(=O)OC(COc1ccccc1)Cn1cnc2cc(C)c(C)cc21 (stereo not given)	inconclusive [inhibitor, single point]	–
CCOC(=O)c1sc(NC(=O)c2cc3c(s2)CCC(C)C3)nc1C (stereo not given)	inconclusive [inhibitor, partial curve]	–
COc1ccc(C2CC(c3ccccc3)=NN2c2ccccc2)c(C(=O)O)c1OC (stereo not given)	inactive	–
Cc1nc(N[C@@H](Cc2ccccc2)C(=O)O)c2oc3ccccc3c2n1	inactive	–
O=C(OCC(=O)N1CCCCC1)c1cc(S(=O)(=O)N2CCOCC2)c(Cl)cc1Cl	inconclusive [inhibitor, single point]	–
O=C(NC1=NCCS1)c1ccc(Cl)c(S(=O)(=O)N2CCCC2)c1	inconclusive [inhibitor, single point]	–
COc1ccccc1N=CC1=C(O)CC(c2ccccc2)CC1=O (stereo not given)	inactive	–
CCOC(=O)N1CCC(c2nc3ccccc3[nH]2)CC1	inactive	–
Cc1oc(-c2ccccc2Cl)nc1CS(=O)CC(=O)N1CCN(c2ccccc2)CC1 (stereo not given)	inconclusive [inhibitor, single point]	–
CC(=O)C1CCC2C3CC(C)C4(O)CC(=O)CCC4(C)C3C(O)CC12C (stereo not given)	inactive	–
CC(C)(C)c1ccc(NC(=O)c2cc[n+]([O-])cc2)cc1	inactive	–
CC1CC1C(=O)Nc1nc(-c2ccccc2)cs1 (stereo not given)	inconclusive [inhibitor, partial curve, poor fit]	–
CCOc1ccc(-c2nn(-c3ccccc3)cc2/C=C2\SC(=S)N(C3CCS(=O)(=O)C3)C2=O)cc1 (stereo not given)	inconclusive [inhibitor, single point]	–
CC(=O)Nc1ccc(Oc2cc(N)cc([N+](=O)[O-])c2)cc1	inactive	–
N#C/C(=C/c1cn(-c2ccccc2)nc1-c1cccc(S(=O)(=O)N2CCCC2)c1)C(=O)NCc1ccco1	inconclusive [inhibitor, single point]	–
CC(=O)NC(C)c1nc2ccccc2n1CC(=O)NC(C)CCc1ccccc1 (stereo not given)	inactive	–
CN(c1ccccc1)S(=O)(=O)c1cccc(NC(=O)CCNC(=O)c2ccccc2)c1	inactive	–
CCCNC(=O)N1CCN(S(=O)(=O)c2ccc3c(c2)OCCO3)CC1	inactive	–
CCCn1c(NC(=O)C2CCN(S(=O)(=O)c3cccs3)CC2)nc2ccccc21	active: 14.1 µM	–
Cc1cc(NC(=O)CSc2nc(Cc3ccccc3)c(C)[nH]2)no1	inconclusive [inhibitor, single point]	–
CCCN1CCN(CCCNC(=O)c2ccc3c(=O)n(CCc4ccccc4)c(=O)[nH]c3c2)CC1	inconclusive [inhibitor, partial curve]	–
Cc1c(C(=O)N2CCC[C@H]2C(N)=O)oc2c(F)cccc12	inactive	–

Compound	Potency	activity change, negative = inhibition
O=C1C=C(NC2=CC3OC(c4ccccc4)OCC3OC2=O)CCC1 (stereo not given)	inconclusive [inhibitor, single point]	–
O=C(CCC(=O)N1CCN(S(=O)(=O)c2ccc3ccccc3c2)CC1)Nc1cc(Cl)cc(Cl)c1	inconclusive [inhibitor, partial curve]	–
Nc1ncc(-c2ccccc2)c(-c2ccc(OCc3ccccc3)cc2O)n1	active: 1.78 µM	–
CCN=C1SC(CC(=O)Nc2ccccc2)C(=O)N1CC (stereo not given)	inconclusive [inhibitor, single point]	–
CCOC(=O)N1CCC(N2CCN(Cc3ccc(C)o3)C(CCO)C2)CC1 (stereo not given)	inactive	–
O=C(NC1CCCCC1)c1ccc(CS(=O)(=O)Cc2ccccc2F)o1	inactive	–
O=C(N/N=C/c1ccccc1O)C1SCCCS1	inconclusive [inhibitor, single point]	–
COc1ccc(NC(=O)CN(c2ccc(OC)cc2)S(=O)(=O)c2c(C)nn(C)c2C)cc1	inactive	–
COc1ccc(C(O)(C2CCCCC2)C(CN2CCOCC2)c2ccccc2)cc1 (stereo not given)	inactive	–
CCOC(=O)CC/C(=N\NC(N)=O)c1ccc(OC)c(Cl)c1	inactive	–
CN1CCN(S(=O)(=O)c2ccc(Cl)cc2)CC1	inactive	–
Nc1ccc2cc3ccccc3cc2c1	inconclusive [inhibitor, full curve, poor fit]	–
O=C(CSc1ncnc2ccccc12)Nc1cccc(S(=O)(=O)N2CCCC2)c1	inactive	–
Cc1ccc(S(=O)(=O)N(CC(O)CN2C(=O)NC(C)(C)C2=O)c2ccccc2)cc1 (stereo not given)	inconclusive [inhibitor, single point]	–
Cc1cc(SCC(=O)c2cccc([N+](=O)[O-])c2)nc(=O)[nH]1	inconclusive [inhibitor, partial curve]	–
CC1CCCN(C(=O)CSCC(=O)Nc2nc(-c3cccs3)cs2)C1 (stereo not given)	inactive	–
O=C(Nc1c2ccccc2nc2ccccc12)C(Cl)(Cl)Cl	inconclusive [inhibitor, single point]	–
CCN(CC)S(=O)(=O)c1cc(C(=O)Nc2cc(S(=O)(=O)N3CCOCC3)ccc2N2CCN(C)CC2)ccc1C	inconclusive [inhibitor, partial curve]	–
CSc1ncccc1C(=O)Nc1cccc(S(=O)(=O)N2CCOCC2)c1	inactive	–
Cc1ccc(S(=O)(=O)N2CCN(C(C)C(=O)Nc3ccccc3-c3ccccc3)CC2)cc1 (stereo not given)	inconclusive [inhibitor, single point]	–
COc1ccc(-c2[nH]c3ccccc3c2SCCNC(=O)c2ccccc2)cc1	active: 12.6 µM	–
c1ccc2nc(N3CCOCC3)c(N3CCOCC3)nc2c1	inactive	–
O=[N+]([O-])c1cc(C(F)(F)F)ccc1N1CCN(S(=O)(=O)c2ccc3c(c2)CCCC3)CC1	inconclusive [inhibitor, full curve]	–
O=C(NC(=S)Nc1cccc(CO)c1)c1ccc(-c2ccccc2)cc1	inactive	–
COc1cc(CNc2ccc3[nH]c(=O)[nH]c3c2)ccc1OCc1ccccc1F	inconclusive [inhibitor, partial curve]	–

Compound	Potency	activity change, negative = inhibition
Cc1ccc(NC(=O)Cn2c(=O)c3cccn3c3ccccc32)c(C)c1	inactive	–
COc1cc2c(cc1OC)C(c1cc(C)ccc1C)CC(=O)N2 (stereo not given)	inactive	–
CCOC(=O)c1c(NC(=O)CN2CCCCC2)sc2c1CCC(C=O)=C2Cl	active: 2.24 µM	–
Cc1ccc(S(=O)(=O)N(C)C)cc1NC(=O)c1cc(-c2ccncc2)nc2ccccc12	inconclusive [inhibitor, full curve]	–
Cc1sc(NC(=O)c2ccco2)c(CN2CCN(c3ccc(F)cc3)CC2)c1C	inconclusive [inhibitor, single point]	–
CCN(C(=O)COC(=O)c1nn(-c2ccccc2)c(=O)c2ccccc12)C1CCS(=O)(=O)C1 (stereo not given)	inactive	–
Cc1ccc(NC(=S)N(Cc2cccc(Br)c2)CC2CCC(C(=O)O)CC2)cc1Cl (stereo not given)	inconclusive [inhibitor, single point]	–
COC(=O)c1c(N)n(Cc2ccc(OC)cc2)c2nc3ccccc3nc12	inconclusive [inhibitor, single point]	–
O=C(NCc1cccs1)C1CCCN1C(=O)Nc1ccccc1Cl (stereo not given)	inactive	–
CCCc1nnc(SCC(=O)O)n1CC	inactive	–
CCCCn1c(=O)c(C(=O)NCc2ccco2)c(O)c2ccccc21	active: 14.1 µM	–
Cc1cccc2c1-c1sc(C(=O)Nc3nccs3)cc1CO2	inconclusive [inhibitor, full curve, poor fit]	–
Cc1ccc(-n2c(C)cc(C(=O)Cn3nc(C(=O)O)c4ccccc4c3=O)c2C)cc1	–	inconclusive: -44.3% [inhibitor]
Cc1nc2cc(NS(=O)(=O)c3c(C)c(C)cc(C)c3C)ccc2s1	active: 2.82 µM	–
N=C1C(c2nc3ccccc3[nH]2)=C(O)CN1NC(=O)c1c[nH]c2ccccc12	inactive	–
Cn1c(CC(=O)Nc2ccc(Cl)c(Cl)c2)nnc1SCC(=O)N1CCN(c2ccccc2)CC1	inconclusive [inhibitor, single point]	–
CCOc1ccccc1NC(=O)CCCc1nc2ccccc2c(=O)[nH]1	inactive	–
CCN(CC)CCCNC(=O)C1CCC(CNS(=O)(=O)c2c(C)cc(C)cc2C)CC1 (stereo not given)	inconclusive [inhibitor, single point]	–
Cc1ccc(NC(=O)Cn2ncn3c(cc4ccccc43)c2=O)c(C)c1	inactive	–
N#C/C(=C\Nc1ccc2cn[nH]c2c1)c1nc(-c2ccc(Cl)cc2)cs1	inconclusive [inhibitor, single point]	–
CCCCCN(C(=O)CCC(=O)OCCOc1ccc(OCC)cc1)c1c(N)n(CCCC)c(=O)[nH]c1=O	inconclusive [inhibitor, single point]	–
CN(C)S(=O)(=O)c1ccc(NC(=O)CNc2cc(S(=O)(=O)N3CCCC3)ccc2OCC(F)(F)F)cc1	inconclusive [inhibitor, partial curve, poor fit]	–
CC1CCCCN1CCNC(=O)c1cc2c(-c3ccccc3F)nn(C)c2s1 (stereo not given)	inconclusive [inhibitor, partial curve]	–
CCOc1ccc(NC(=O)c2ccccc2OC)cc1	inactive	–
CCC/C(O)=C1\C(=O)CC(C)(C)CC1=Nc1ccc(OC)cc1	inconclusive [inhibitor, partial curve]	–

Reference: PubChem BioAssay AID651820 (National Center for Advancing Translational Sciences (NCATS), 2012)
